# Test results reported in PMC4336329 (PLoS ONE, 2015).
# The campaign covered roughly 310,000 compounds. About 14,000 (4.5%) showed an effect of 50% or more. Effects have a minus sign here. The list shows a part of the results.
# Target: human ether-à-go-go-related gene (hERG) potassium channel (human, UniProt Q12809)
# Experiment: primary screen, population patch clamp on CHO cells stably expressing hERG
# 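Note: peak tail current of the secondary pulse compared with the same well before compound.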
# Chain of human ether-à-go-go-related gene (hERG) potassium channel (Q12809 whole entry, looked up): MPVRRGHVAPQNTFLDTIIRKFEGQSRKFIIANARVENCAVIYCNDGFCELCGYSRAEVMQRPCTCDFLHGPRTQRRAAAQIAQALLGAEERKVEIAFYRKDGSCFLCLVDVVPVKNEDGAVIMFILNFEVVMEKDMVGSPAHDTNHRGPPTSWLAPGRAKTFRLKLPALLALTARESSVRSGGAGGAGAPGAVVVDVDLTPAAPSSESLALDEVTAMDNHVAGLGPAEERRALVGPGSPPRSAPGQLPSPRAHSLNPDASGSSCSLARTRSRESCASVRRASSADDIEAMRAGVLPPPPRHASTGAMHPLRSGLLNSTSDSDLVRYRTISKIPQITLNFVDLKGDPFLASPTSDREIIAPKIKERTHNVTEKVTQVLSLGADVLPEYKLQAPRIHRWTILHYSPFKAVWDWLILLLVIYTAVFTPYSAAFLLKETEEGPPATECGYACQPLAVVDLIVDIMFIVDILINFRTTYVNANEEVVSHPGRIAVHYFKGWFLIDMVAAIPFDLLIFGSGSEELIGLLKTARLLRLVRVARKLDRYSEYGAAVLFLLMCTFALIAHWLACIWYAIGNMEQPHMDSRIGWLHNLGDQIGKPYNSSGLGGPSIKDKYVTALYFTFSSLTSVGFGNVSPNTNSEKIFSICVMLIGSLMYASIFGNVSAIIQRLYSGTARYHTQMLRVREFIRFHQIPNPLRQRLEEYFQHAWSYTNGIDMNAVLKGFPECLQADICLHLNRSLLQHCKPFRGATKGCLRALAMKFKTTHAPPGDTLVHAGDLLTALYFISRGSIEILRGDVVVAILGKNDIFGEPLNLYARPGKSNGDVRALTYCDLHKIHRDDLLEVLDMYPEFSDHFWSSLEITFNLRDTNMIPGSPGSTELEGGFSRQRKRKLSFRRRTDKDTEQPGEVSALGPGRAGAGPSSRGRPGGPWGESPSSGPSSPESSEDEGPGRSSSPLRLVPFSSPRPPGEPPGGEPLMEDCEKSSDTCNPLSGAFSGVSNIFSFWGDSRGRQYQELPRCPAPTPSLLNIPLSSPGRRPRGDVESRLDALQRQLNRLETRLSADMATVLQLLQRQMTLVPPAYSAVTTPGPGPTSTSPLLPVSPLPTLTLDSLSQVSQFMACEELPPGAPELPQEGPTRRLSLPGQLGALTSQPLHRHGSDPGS
row,SMILES,"hERG current change (%, negative = inhibition) at 10uM [%]"
1,COc1ccccc1CCc1nnc(CCC(=O)NC(C)Cc2cccc(C)n2)o1 (stereo not drawn),6.37
2,CCC(C)C(NC(N)=O)C(=O)Nc1ccc(S(=O)(=O)Nc2ccc(OC)cc2)cc1 (stereo not drawn),17.7
3,O=C(Nc1ccccc1)Nc1nncs1,-10.3
4,O=C(NCCN1CCOCC1)Nc1ccc(Cl)cc1Cl,-13.1
5,CN(C)C(=O)CSc1nc(-c2ccccc2)c(-c2ccccc2)o1,-12.2
6,CCOc1ccc(C(=O)NCC(=O)N2CC=C(c3ccccc3)CC2)cc1OCC,-62.9
7,CN(C)c1nc(N)nc(Cn2ccnc2)n1,-14
8,COc1ccccc1N(CC(=O)Nc1c(C)n(C)n(-c2ccccc2)c1=O)S(=O)(=O)c1ccc(C)cc1,-21.5
9,Cc1ccc(C(=O)Nc2c[nH]c(=O)[nH]c2=O)cc1,19
10,CCOc1ccccc1C(=O)N1CCN(c2ccc(C(F)(F)F)cn2)CC1,2.27
11,Cc1cc(=O)n2nc(-c3ccc(C(F)(F)F)cc3)sc2n1,-2.3
12,COc1cc(CNCc2cccs2)ccc1OCc1cccs1.Cl,-18.5
13,Cc1cc(NC(=O)Cc2ccccc2C)no1,4.79
14,O=c1oc2cc(OCCO)ccc2c2c1CCCC2,10.5
15,COc1ccc2c(c1)OC[C@H]1[C@H]2N2C(=O)c3cc(OC)c(OC)cc3NC(=O)[C@@]2(C)[C@H]1c1ccccc1,-5.16
16,C/C(=N\Nc1nc2ccc(Cl)cc2o1)c1ccccc1,10.2
17,Cc1cccc(C)c1-n1c(C)nn(CCOc2ccccc2)c1=O,9.74
18,O=C(COC(=O)CCCN1C(=O)c2cccc3cccc(c23)C1=O)Nc1ccc(Cl)cc1,3.07
19,Cc1ccc2[nH]c(=O)c(CN(CC3CCCO3)S(=O)(=O)c3c(C)ccc4nsnc34)cc2c1 (stereo not drawn),-8.3
20,COc1ccc(C(=O)NCC(c2cccs2)N2CCc3ccccc32)cc1OC (stereo not drawn),-18.5
21,CCn1c(=O)cc(N2CCN(C(=O)c3ccco3)CC2)[nH]c1=O,22.1
22,Cc1cccc(Nc2ccc(C(=O)N3CCOCC3)cn2)c1,10.7
23,CCCCN(C)C(=O)Cn1nc(Cc2ccncc2)c2ccccc2c1=O,-11.3
24,Cc1nc(SCC(=O)N(CC(C)C)C2CCS(=O)(=O)C2)c2c(C)c(C)sc2n1 (stereo not drawn),-15.7
